Binding data for one substance are collected here from publication PMC4605303.

Amino acid sequences for entries named in this document (tags omitted).
UniProt Q8WXD5: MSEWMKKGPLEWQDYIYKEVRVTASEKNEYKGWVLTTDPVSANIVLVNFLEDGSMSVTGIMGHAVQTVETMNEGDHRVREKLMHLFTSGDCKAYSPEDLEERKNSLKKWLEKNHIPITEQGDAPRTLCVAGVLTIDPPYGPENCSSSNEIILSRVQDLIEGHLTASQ
UniProt P04406: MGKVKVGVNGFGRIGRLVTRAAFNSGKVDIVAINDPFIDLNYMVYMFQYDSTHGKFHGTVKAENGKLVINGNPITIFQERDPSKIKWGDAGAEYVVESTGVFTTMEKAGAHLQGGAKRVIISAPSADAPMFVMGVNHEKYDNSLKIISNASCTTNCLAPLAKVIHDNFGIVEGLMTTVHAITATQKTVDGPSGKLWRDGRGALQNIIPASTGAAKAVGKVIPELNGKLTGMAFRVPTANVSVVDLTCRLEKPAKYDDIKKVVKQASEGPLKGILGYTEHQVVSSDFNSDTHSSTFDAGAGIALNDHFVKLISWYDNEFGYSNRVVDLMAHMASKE
UniProt P57678: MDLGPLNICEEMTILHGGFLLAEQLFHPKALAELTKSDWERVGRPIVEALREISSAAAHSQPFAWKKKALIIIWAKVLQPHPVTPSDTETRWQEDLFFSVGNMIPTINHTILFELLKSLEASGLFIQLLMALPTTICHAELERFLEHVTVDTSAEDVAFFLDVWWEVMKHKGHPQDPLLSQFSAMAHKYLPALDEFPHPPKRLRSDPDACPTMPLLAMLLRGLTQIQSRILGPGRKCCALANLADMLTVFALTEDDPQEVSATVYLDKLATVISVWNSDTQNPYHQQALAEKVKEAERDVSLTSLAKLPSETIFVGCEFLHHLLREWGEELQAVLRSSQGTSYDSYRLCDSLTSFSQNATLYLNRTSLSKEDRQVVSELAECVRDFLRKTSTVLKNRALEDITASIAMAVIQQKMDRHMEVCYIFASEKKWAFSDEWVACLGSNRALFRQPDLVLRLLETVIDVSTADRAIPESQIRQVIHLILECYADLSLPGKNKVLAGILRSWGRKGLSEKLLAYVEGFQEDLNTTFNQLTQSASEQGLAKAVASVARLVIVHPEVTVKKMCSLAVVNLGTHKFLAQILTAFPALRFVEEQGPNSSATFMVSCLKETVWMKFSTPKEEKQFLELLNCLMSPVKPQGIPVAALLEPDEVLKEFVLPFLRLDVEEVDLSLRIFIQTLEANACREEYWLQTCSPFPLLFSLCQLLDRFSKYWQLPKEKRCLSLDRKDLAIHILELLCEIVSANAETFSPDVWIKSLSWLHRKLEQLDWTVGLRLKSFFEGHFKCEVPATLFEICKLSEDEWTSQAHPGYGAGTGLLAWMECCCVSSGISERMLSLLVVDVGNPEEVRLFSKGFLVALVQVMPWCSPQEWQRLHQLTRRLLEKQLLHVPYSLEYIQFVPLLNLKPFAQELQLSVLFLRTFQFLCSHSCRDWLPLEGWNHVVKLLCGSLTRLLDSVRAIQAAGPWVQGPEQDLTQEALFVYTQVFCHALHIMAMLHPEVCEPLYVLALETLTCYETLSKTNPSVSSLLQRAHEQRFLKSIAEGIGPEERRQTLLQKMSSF
UniProt Q9H840: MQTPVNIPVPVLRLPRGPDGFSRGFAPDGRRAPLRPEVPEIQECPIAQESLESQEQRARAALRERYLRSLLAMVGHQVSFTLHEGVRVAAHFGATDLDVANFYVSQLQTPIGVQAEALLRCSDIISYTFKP
UniProt Q9UHI6: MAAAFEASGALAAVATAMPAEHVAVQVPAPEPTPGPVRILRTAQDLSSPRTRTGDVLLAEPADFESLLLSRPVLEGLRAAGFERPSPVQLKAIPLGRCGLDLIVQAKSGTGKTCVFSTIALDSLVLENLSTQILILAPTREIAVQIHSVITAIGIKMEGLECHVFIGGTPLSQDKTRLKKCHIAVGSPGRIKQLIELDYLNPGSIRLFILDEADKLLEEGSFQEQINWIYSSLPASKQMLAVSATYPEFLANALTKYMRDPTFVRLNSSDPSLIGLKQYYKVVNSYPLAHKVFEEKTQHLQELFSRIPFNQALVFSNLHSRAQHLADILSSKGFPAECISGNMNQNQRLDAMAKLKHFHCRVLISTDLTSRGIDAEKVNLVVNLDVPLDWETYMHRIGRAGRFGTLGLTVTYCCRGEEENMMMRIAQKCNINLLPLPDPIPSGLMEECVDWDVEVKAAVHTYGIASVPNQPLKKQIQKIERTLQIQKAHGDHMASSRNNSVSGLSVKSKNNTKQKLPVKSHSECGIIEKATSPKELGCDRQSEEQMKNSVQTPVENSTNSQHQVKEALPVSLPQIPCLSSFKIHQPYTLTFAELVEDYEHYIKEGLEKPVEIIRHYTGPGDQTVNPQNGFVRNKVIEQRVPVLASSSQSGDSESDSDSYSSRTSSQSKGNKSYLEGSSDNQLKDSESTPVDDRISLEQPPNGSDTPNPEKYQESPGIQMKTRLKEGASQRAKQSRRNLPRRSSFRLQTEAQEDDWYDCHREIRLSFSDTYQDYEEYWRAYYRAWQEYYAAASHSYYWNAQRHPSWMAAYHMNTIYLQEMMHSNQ
UniProt O14893: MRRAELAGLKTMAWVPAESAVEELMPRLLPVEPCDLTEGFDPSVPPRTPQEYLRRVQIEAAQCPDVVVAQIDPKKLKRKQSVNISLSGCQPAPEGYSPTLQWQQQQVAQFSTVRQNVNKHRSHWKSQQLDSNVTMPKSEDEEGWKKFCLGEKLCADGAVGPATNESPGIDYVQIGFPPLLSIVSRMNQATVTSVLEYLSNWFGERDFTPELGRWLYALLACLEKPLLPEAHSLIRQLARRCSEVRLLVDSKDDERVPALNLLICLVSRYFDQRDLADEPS
UniProt Q16637: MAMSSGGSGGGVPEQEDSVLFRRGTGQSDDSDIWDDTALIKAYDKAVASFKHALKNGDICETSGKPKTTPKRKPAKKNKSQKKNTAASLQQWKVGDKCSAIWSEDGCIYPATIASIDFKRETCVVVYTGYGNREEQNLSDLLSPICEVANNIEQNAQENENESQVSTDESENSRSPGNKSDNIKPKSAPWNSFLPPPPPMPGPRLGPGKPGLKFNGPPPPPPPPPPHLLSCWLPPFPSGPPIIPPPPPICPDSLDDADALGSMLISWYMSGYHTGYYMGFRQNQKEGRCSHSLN
UniProt Q9UHK0: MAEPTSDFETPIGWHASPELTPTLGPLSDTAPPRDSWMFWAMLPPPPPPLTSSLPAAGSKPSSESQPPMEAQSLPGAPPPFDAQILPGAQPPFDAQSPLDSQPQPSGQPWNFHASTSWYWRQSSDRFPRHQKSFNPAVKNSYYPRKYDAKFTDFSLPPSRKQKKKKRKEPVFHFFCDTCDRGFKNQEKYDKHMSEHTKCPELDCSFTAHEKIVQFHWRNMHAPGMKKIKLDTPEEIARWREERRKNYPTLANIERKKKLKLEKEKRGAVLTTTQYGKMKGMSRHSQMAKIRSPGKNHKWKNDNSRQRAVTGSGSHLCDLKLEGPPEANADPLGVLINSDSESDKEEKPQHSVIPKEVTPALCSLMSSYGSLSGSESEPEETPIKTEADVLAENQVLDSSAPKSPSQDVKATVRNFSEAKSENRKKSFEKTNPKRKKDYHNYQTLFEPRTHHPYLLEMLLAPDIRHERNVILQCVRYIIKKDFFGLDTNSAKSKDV

These are yes or no findings as the source states them, for the method shown. In cells and extracts the contact can be indirect. Some results given as binding are weak or reduced against the parent protein; the word gives no strength.

Holding throughout (assay): proximity ligation; in situ PLA (DuolinkII) on fixed, permeabilized HeLa cells with primary antibodies against the two endogenous proteins
Assay [1] has as its target Gemin6 (endogenous, HeLa) (human (endogenous in HeLa)) (UniProt Q8WXD5).
Assay [2] concerns the target GAPDH (endogenous, HeLa) (human (endogenous in HeLa)) (UniProt P04406).
In assay [3] the target is Gemin4 (endogenous, HeLa) (human (endogenous in HeLa)) (UniProt P57678).
Assay [4] deals with Gemin7 (endogenous, HeLa) (human (endogenous in HeLa)) (UniProt Q9H840).
Assay [5] concerns the target Gemin3 (endogenous, HeLa) (human (endogenous in HeLa)) (UniProt Q9UHI6).
For assay [6], the target named is T1, Gemin8 (endogenous, HeLa) (human (endogenous in HeLa)) (UniProt Q9NWZ8).
T1 sequence: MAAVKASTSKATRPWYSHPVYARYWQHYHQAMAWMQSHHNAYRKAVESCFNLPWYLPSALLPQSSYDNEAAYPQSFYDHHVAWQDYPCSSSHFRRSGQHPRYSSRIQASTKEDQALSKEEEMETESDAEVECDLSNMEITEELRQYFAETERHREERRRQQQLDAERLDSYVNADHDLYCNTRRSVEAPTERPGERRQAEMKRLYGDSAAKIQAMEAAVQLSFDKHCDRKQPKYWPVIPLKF

The target of assay [7] is Gemin2 (endogenous, HeLa) (human (endogenous in HeLa)) (UniProt O14893).
Assay [8] addresses SMN (endogenous, HeLa) (human (endogenous in HeLa)) (UniProt Q16637).

As to “NUFIP (endogenous, HeLa) (from UniProt Q9UHK0 1-495)”, the binding result in assay [1] was “binds”; in assay [2], “no binding”; in assay [3], “binds”; in assay [4], “binds”; in assay [5] it was “binds”; in assay [6] it was “binds”. Further, the binding entry in assay [7] and in assay [8] was “binds” in each case.
